# In the supplement of paper PMC6746778:
# Values joined by “and” are separate entries in the source; they are usually repeats but may differ in a detail not shown here. Identical values can stand only once. The list shows a part of the results. Repeats are few or missing, and single values can be far off.
# Columns and labels:
# Assay in all cases: proliferation Z-score within cell line (SRB, relative to all inhibitors screened on that line); triple-negative breast cancer lines and a kinase inhibitor library; SRB is the sulforhodamine B protein stain; higher = less growth inhibition (more resistant)
# Conditions in all cases: concentration: 1 µM; 4 days
# Bt20 = system: Bt20
# Bt549 = system: Bt549
# HCC1143 = system: HCC1143
# HCC1806 = system: HCC1806
# HCC1937 = system: HCC1937
# HCC38 = system: HCC38
# HCC70 = system: HCC70
# Hs578T = system: Hs578T
# MDA-MB-231 = system: MDA-MB-231
# MDA-MB-435s = system: MDA-MB-435s
# MDA-MB-436 = system: MDA-MB-436
# MDA-MB-453 = system: MDA-MB-453
# MDA-MB-468 = system: MDA-MB-468
# SKBR7 = system: SKBR7
# SUM1315MO2 = system: SUM1315MO2
# SUM149PT = system: SUM149PT
# SUM159PT = system: SUM159PT
# SUM185PE = system: SUM185PE
# SUM229PE = system: SUM229PE
# SUM52PE = system: SUM52PE
# 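Further: Single-dose primary screen of a 378-member kinase inhibitor library in 96-well plates, with growth read as absorbance of protein-bound SRB dye after TCA fixation.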
Structure (SMILES),proliferation Z-score within cell line (Bt20),proliferation Z-score within cell line (Bt549),proliferation Z-score within cell line (HCC1143),proliferation Z-score within cell line (HCC1806),proliferation Z-score within cell line (HCC1937),proliferation Z-score within cell line (HCC38),proliferation Z-score within cell line (HCC70),proliferation Z-score within cell line (Hs578T),proliferation Z-score within cell line (MDA-MB-231),proliferation Z-score within cell line (MDA-MB-435s),proliferation Z-score within cell line (MDA-MB-436),proliferation Z-score within cell line (MDA-MB-453),proliferation Z-score within cell line (MDA-MB-468),proliferation Z-score within cell line (SKBR7),proliferation Z-score within cell line (SUM1315MO2),proliferation Z-score within cell line (SUM149PT),proliferation Z-score within cell line (SUM159PT),proliferation Z-score within cell line (SUM185PE),proliferation Z-score within cell line (SUM229PE),proliferation Z-score within cell line (SUM52PE)
CN1CCN(c2ccc(OC(F)(F)F)c(Nc3ncc4c(n3)-c3c(c(C(N)=O)nn3CCO)CC4)c2)CC1,-2.79,-2.16,-2.35,-1.48,-1.47,-2.26,-2.49,-1.94,-2.8,-2.37,-2.06,-1.72,-2.54,-2.59,-2.32,-3.08,-3.33,-0.773,-1.86,-1.59
Cc1[nH]c(/C=C2\C(=O)Nc3ccc(S(=O)(=O)Cc4c(Cl)cccc4Cl)cc32)c(C)c1C(=O)N1CCC[C@@H]1CN1CCCC1,0.532,0.608,0.306,0.276,0.588,0.485,0.842,0.681,0.619,0.77,0.735,1.13,1.06,1.87,0.975,0.534,0.559,0.991,-0.0706,0.905
CNC(=O)c1cccc(-c2ccc3c(N4CCOC[C@@H]4C)nc(N4CCOC[C@@H]4C)nc3n2)c1,-1.41,-1.86,-1.48,-1.15,-1.75,-0.901,-1.73,-2.04,-1.2,-1.45,-1.64,-1.54,-1.18,-1.64,-1.5,-1.18,-1.33,-1.44,-1.29,-1.19
Cc1cc(Nc2cc(N3CCN(C)CC3)nc(/C=C/c3ccccc3)n2)n[nH]1,-0.161,0.363,-0.488,-0.93,-0.0172,-0.0376,-0.191,0.176,-1.22,-1.33,-0.977,-1.13,-1.89,-0.887,-1.2,-0.651,-0.152,-1.06,-0.683,-1.73
O=Nc1c(-c2c(O)[nH]c3cc(Br)ccc23)[nH]c2ccccc12,1.09,0.784,0.498,0.898,0.875,0.443,0.642,0.516,0.363,0.537,1.18,0.545,0.37,0.829,0.49,0.455,0.322,0.717,1.71,0.558
CN(C)Cc1cccc(N=C(c2ccccc2)c2c(O)[nH]c3cc(C(N)=O)ccc23)c1,0.41,0.641,1.11,0.554,0.762,0.602,0.662,0.7,0.748,0.861,0.957,1.05,0.819,0.565,0.598,0.647,0.68,0.295,0.272,0.658
Nc1cccc(-c2cc3c(Oc4cccc(O)c4)ncnc3[nH]2)c1,0.802,0.749,0.98,-0.0975,0.685,0.247,0.817,0.849,0.625,0.574,0.485,0.964,0.815,0.167,0.878,-0.319,0.749,1.25,0.548,-0.659
CN(c1ncccc1CNc1nc(Nc2ccc3c(c2)CC(=O)N3)ncc1C(F)(F)F)S(C)(=O)=O,0.859 and 0.327,,,-0.436 and -1.01,0.805 and 0.401,0.479 and 0.218,,0.54 and 0.237,,,0.979 and 0.749,0.738 and 0.334,0.841 and 0.417,,0.487 and 0.478,,,0.914 and 0.546,,0.663 and 0.261
"COc1cc(F)c(F)c(Nc2ccc(I)cc2F)c1NS(=O)(=O)C1(C[C@H](O)CO)CC1 [Refametinib (RDEA119, Bay 86-9766)]",0.00543,-0.386,-0.388,-1.92,0.485,-0.747,0.0459,-1.33,-2.09,-2.01,0.0227,-1.47,-0.377,0.0902,-0.177,-2.78,0.52,-0.412,-2.45,-1.14
O=c1c(O)c(-c2ccc(O)c(O)c2)oc2cc(O)cc(O)c12 [Quercetin],0.0438,0.55,0.457,0.906,0.495,0.204,0.343,0.421,0.535,0.4,0.0179,0.419,0.291,-0.151,0.183,-0.331,0.148,-0.143,-0.0342,0.402
N#CC[C@H](C1CCCC1)n1cc(-c2ncnc3[nH]ccc23)cn1,0.186 and 0.449,0.607 and 0.852,,0.677 and 0.421,,0.564 and 0.529,,0.754 and 0.75,0.538 and 0.556,0.609 and 0.443,,0.924 and 0.946,0.45 and 0.481,,0.613 and 0.809,0.733 and 0.711,,0.633 and 0.26,0.501 and 0.408,0.689 and 0.799
Nc1nc(N)c2nc(-c3cccc(O)c3)c(-c3cccc(O)c3)nc2n1,0.505,0.499,0.434,0.847,0.614,0.574,0.689,0.83,0.99,0.732,0.344,0.0772,0.743,0.651,0.712,0.626,0.507,0.189,0.335,0.453
C=CCc1ccc(O)c(-c2ccc(O)c(CC=C)c2)c1 [Honokiol],0.118,0.586,0.59,0.673,0.706,0.349,0.506,0.416,0.292,0.619,0.483,0.684,0.388,0.792,0.575,0.548,0.399,0.602,0.92,0.723
Cc1cc(F)c(Nc2ncnc3cc(OCc4ccccc4)ccc23)cc1O,0.4,0.436,0.55,0.542,0.597,0.419,0.586,0.399,0.444,0.654,0.413,0.695,0.309,0.175,0.288,0.143,0.412,0.325,0.258,0.412
Cc1cc(C(=O)NOCCO)c(Nc2ccc(I)cc2F)n(C)c1=O,-0.333,-0.319,-2.07,-1.47,-0.224,-0.866,-0.379,-1.07,-1.76,-1.62,-0.173,-1.28,-1.11,-0.206,-0.264,-2.14,-1.16,-1.08,-2.1,-1.25
CC(C)CCN1c2nc(Nc3cc(F)c(O)c(F)c3)ncc2N(C)C(=O)C1C (stereo not given),0.888,0.735,0.945,0.955,0.804,0.677,0.838,0.855,0.849,0.981,1.09,1,0.91,1.13,0.623,0.374,0.764,1.57,0.293,1.12
COC(=O)Nc1ccc(-c2nc(N3CCOCC3)c3cnn(C4CCN(C(=O)OC)CC4)c3n2)cc1,-1.79,-0.393,-1.85,0.553,-1.41,0.525,0.705,-0.393,-1.39,-1.82,-1.25,-0.306,-1.25,-0.636,-1.88,-1.41,-3.3,-1.83,-1.63,-1.37
CNc1nc(Nc2cnn(C3CCN(C4COC4)CC3F)c2Cl)ncc1C(F)(F)F (stereo not given),0.558,0.636,0.518,0.511,0.288,0.431,0.508,0.498,0.704,0.644,0.931,0.819,0.455,1.07,0.158,0.555,0.306,0.0037,0.337,0.547
O=C(c1ccc(/C=C/c2n[nH]c3ccccc23)cc1)N1CCNCC1,0.855,0.0347,-1.11,0.14,0.181,0.353,0.414,0.23,-0.136,-0.0947,0.329,-0.116,-0.16,-0.237,-0.398,0.451,-0.299,-0.484,0.164,-0.866
CC(C)c1cnn2c(NCc3ccccc3)cc(NCCCCCCN)nc12,0.347,0.526,1.22,0.519,0.962,0.421,0.678,0.659,0.958,0.583,0.479,0.595,0.916,0.375,0.625,0.142,0.353,0.338,0.457,0.0474
COc1cccc(-c2cc(=O)c3ccccc3o2)c1N,0.771,0.725,0.601,0.749,-0.0542,0.538,0.257,0.797,0.906,0.553,-0.271,0.638,0.603,1.2,1.06,0.788,0.47,0.974,0.587,1.03
O=C1NC(=O)/C(=C/c2ccc(-c3ccc(F)cc3O)o2)S1,0.721,0.699,0.775,0.695,0.696,0.477,0.739,0.783,0.976,0.659,0.555,0.834,0.768,0.401,1.15,0.994,0.543,0.778,0.817,1.09
Nc1ccc(-c2ccc3ncc4ccc(=O)n(-c5cccc(C(F)(F)F)c5)c4c3c2)cn1 [Torin 2],-1.79,-1.64,-0.735,0.856,-1.43,-0.93,-1.57,-1.71,-1.48,-1.6,-1.45,-1.36,-1.43,-1.5,-1.17,-1.72,-1.32,-1.43,-1.82,-1.26
CNc1nc(-c2ccc3c(N)n[nH]c3c2)cc(N2C[C@@H](C(=O)NC3CCCCC3)CC[C@H]2C)n1,-0.0617,-0.342,0.0134,0.563,-1.07,0.34,-0.987,-0.817,-0.186,-0.52,-0.0796,-1.14,-0.793,-0.538,-0.331,0.28,-0.0653,-1.59,0.287,-0.962
CC(C)(C)c1cc(NC(=O)Nc2ccc(-c3cn4c(n3)sc3cc(OCCN5CCOCC5)ccc34)cc2)no1 [Quizartinib (AC220)],0.909,0.651,1.07,0.899,0.47,0.519,0.612,0.272,0.843,0.887,1.07,0.918,1.11,1.18,1.06,0.816,0.681,1.16,0.923,1.1
Cn1cnc2c(F)c(Nc3ccc(Br)cc3Cl)c(C(=O)NOCCO)cc21 [Selumetinib (AZD6244)],0.101,0.267,-1.57,-1.8,-0.0935,-0.768,-0.497,-0.32,-1.99,-1.89,-0.231,0.785,0.547,1.54,0.406,-1.54,0.181,1.13,-1.9,-1.45
